The values below come from PubChem BioAssay AID1508623 (National Center for Advancing Translational Sciences (NCATS), 2021).

Among all 48,000 compounds or so, about 450 (0.94%) were called active. Not shown: some 19% with an inconclusive outcome. The call rests on the fitted dose curve; in most records, active means well fitted inhibition curve with a large enough effect; inconclusive means small, poorly fitted or top-dose-only effect; inactive means no such curve, though single readings can be large or run the other way. The list shows a part of the results.
Potency means the concentration at half of the fitted maximal effect.

This experiment in a line: Primary qHTS for Identification of Small Molecule Inhibitors of Huntingtin Promoter Activity. Further: nearly all actives have a fitted effect of over 50% in size. The conditions noted are these: HEK293 HTT promoter firefly luciferase reporter (activity 0% = vehicle and -100% = no light), 24 h; series mostly up to 57.5 µM; activity change, negative = inhibition: at the top concentration. An outline of the steps: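 HEK293 Fluc reporter, 2,500 cells/well, 24 h pre-culture; cpds up to 57.5 uM final, 24 h 37 degrees C; Dual-Glo, 10 min RT; normalized vehicle = 0%, zero RLU = -100%.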
Background: In qHTS, concentration-response curves come from the screen itself.
On to `Cc1c(C(=O)Nc2ccccc2F)sc2ncnc(N(C)C3CCCCC3)c12`, for which the “activity change, negative = inhibition” value was inactive: -20.2%.

`CC(C)CN(CCCNC(=O)c1cc(=O)[nH]c2ccc(S(=O)(=O)N3CCCCCC3)cc12)CC(C)C`: the “activity change, negative = inhibition” value was inactive: -3.44%.

For `CC(=O)N1c2nc(C(C)C)nn2C2(CCCCC2)[C@@H]2CCCC[C@@H]21`, the “activity change, negative = inhibition” value was inactive: -9.09%.

For `CCOc1ccc2oc(=O)cc(CN3CCN(c4cc(C)ccc4C)CC3)c2c1`, the “activity change, negative = inhibition” value was inactive: -6.56%.

On to `O=C(Nc1ccc2oc(-c3ccc(O)c(Br)c3)nc2c1)c1cc2ccccc2o1`, for which the “activity change, negative = inhibition” value is inactive: 26%.

For the molecule `Cc1nc2nc(NC(=O)c3ccccc3F)[nH]n2c(=O)c1Cl`, the “activity change, negative = inhibition” value is inactive: -2.9%.

Take `Cc1cccc(N2CCN(C(=O)c3cccn4c(=O)c5cc(Cl)ccc5nc34)CC2C)c1` (stereo not given): the “activity change, negative = inhibition” value is inactive: -2.91%.

Take `CC(C)(CO)[C@@H](O)C(=O)NCCCO`: the “activity change, negative = inhibition” value was inactive: 8.86%.

Regarding `O=C(CSc1nnc(-c2cccc(Cl)c2)o1)N1CCc2ccccc21`, the “activity change, negative = inhibition” value is inactive: -5.98%.

As to `COc1cc(OC)c(NC(=O)C2=C(C)C(=O)OC23CCCCCC3)cc1Cl`, the “activity change, negative = inhibition” value was inactive: -8.2%.

For the molecule `COc1ccccc1-c1nnc(SCC(=O)Nc2ccccc2F)o1`, the “activity change, negative = inhibition” value was inactive: 51.2%.

As to `CCC1CN(C(=O)N2CCC(C(=O)N3CCN(c4cccc(C)c4C)CC3)CC2)c2ccccc2O1` (stereo not given), the Potency was active: 20 µM.

In the case of `Cc1ccc(Cl)cc1NC(=O)CCC(=O)N1CC(C)Sc2ccccc21` (stereo not given), the “activity change, negative = inhibition” value was inactive: -29.1%.

Consider `O=C(NCCc1ccc(Cl)cc1)C1CCN(c2ncnc3c2nc2n3CCCCC2)CC1`, for which the “activity change, negative = inhibition” value was inactive: -7.42%.

For `Cc1ccc(-n2c(=O)c3c4c(sc3n(CC(=O)c3ccc(Cl)cc3)c2=O)CCC4)cc1C`, the “activity change, negative = inhibition” value was inactive: -18.4%.

Regarding `CN(Cc1ccco1)C(=O)c1ccc2c(c1)N(Cc1ccccc1F)C(=O)c1ccccc1S2`, the “activity change, negative = inhibition” value is inactive: -24%.

Consider `CCc1ccc(NC(=O)CN2CCCN(Cc3cccc(Cl)c3)S2(=O)=O)cc1`, for which the “activity change, negative = inhibition” value is inactive: -12.8%.

As for `CCOc1ccc(NC(=O)c2cc(S(=O)(=O)N3CCCCCC3)cn2C)cc1`, the “activity change, negative = inhibition” value was inactive: -10%.

On to `COc1ccc2c(c1)c1c(c(=O)n(-c3ccc(F)c(Cl)c3)c(=O)n1CC(=O)N1CCCC1)n2C`, for which the “activity change, negative = inhibition” value is inactive: -4.09%.

For `Cc1c2cnn(-c3ccccc3)c(=O)c2c(C)n1CC(=O)NCCc1ccc(Cl)cc1`, the “activity change, negative = inhibition” value was inactive: -14.2%.

In the case of `CC(=O)N1CCc2c(sc3c2c(=O)n(-c2ccccc2)c(=O)n3CC(=O)Nc2ccccc2)C1`, the “activity change, negative = inhibition” value was inactive: -14.1%.

In the case of `COc1cc(CNC(=O)c2ccc3c(c2)N(C)C(=O)C2CCCCN32)cc(OC)c1OC` (stereo not given), the “activity change, negative = inhibition” value was inactive: -1.44%.

Turning to `O=C(O)c1ccc(CNCc2ccc(Cl)cc2)s1`, the “activity change, negative = inhibition” value was inactive: -11.5%.

Regarding `Cc1ccc2nc(Nc3cccc(Cl)c3C)c(-n3nc(C)cc3C)nc2c1`, the “activity change, negative = inhibition” value is inactive: 8.12%.

As for `CC(C)CN(C(=O)c1cccc(S(=O)(=O)N2CCCCC2)c1)C1CCS(=O)(=O)C1` (stereo not given), the “activity change, negative = inhibition” value is inactive: -20.4%.

As for `Cc1ccccc1NC(=O)Cn1c(SCC(=O)Nc2ccc(F)cc2)nc2ccccc21`, the “activity change, negative = inhibition” value was inactive: -20.1%.

On to `CCOC(=O)c1ccc(NC(=O)Cn2c(=O)n(-c3ccc(C)cc3)c(=O)c3c2cnn3C)cc1`, for which the “activity change, negative = inhibition” value is inactive: -8.56%.

In the case of `Cc1c(-c2nc(-c3ccc4c(c3)OCO4)no2)nnn1-c1ccc(Br)cc1F`, the “activity change, negative = inhibition” value was inactive: 13.3%.

As to `Cc1ccc(CNC(=O)Cc2c(C)c3cc4c(C)coc4cc3oc2=O)cc1`, the “activity change, negative = inhibition” value is inactive: -2.57%.

Regarding `O=C(COc1ccccc1Cl)OCc1cc(=O)n2nc(-c3cccs3)sc2n1`, the “activity change, negative = inhibition” value was inactive: -20.6%.

Turning to `CCOC(=O)c1c(NC(=O)c2nc(SCC)ncc2Cl)sc(C(C)=O)c1C`, the “activity change, negative = inhibition” value is inactive: -11.9%.

As to `COc1ccc([C@@H]2CC(=O)c3c(O)cc(O[C@@H]4O[C@H](CO[C@@H]5O[C@@H](C)[C@H](O)[C@@H](O)[C@@H]5O)[C@@H](O)[C@H](O)[C@@H]4O)cc3O2)cc1O`, the “activity change, negative = inhibition” value was inactive: -3.42%.

With `COc1ccc(C(=O)OCc2cc(=O)n3nc(-c4cccs4)sc3n2)cc1`, the “activity change, negative = inhibition” value was inactive: 0.526%.

As to `CCC(Cn1nnc2ccccc2c1=O)NC(=O)Nc1cccc(C)c1C` (stereo not given), the “activity change, negative = inhibition” value is inactive: -3.77%.

`Cc1ccc(NC(=O)C2CCCN(c3nnc(C)c4c(C)n(-c5ccccc5)nc34)C2)c(Cl)c1` (stereo not given): the “activity change, negative = inhibition” value was inactive: 10.2%.

For `CCC(=O)N1CCc2cc(Br)cc(S(=O)(=O)CCC(=O)N3CCN(c4cccc(C(F)(F)F)c4)CC3)c21`, the “activity change, negative = inhibition” value is inactive: -22.1%.

Consider `CC1=C(C(=O)Nc2ccccc2)C(c2ccncc2)n2nc(SCc3ccccc3Cl)nc2N1` (stereo not given), for which the “activity change, negative = inhibition” value is inactive: -16%.

In the case of `O=C(Cn1c(=O)n(Cc2ccco2)c(=O)c2ccccc21)Nc1ccc(Cl)cc1Cl`, the “activity change, negative = inhibition” value was inactive: -4.07%.

Take `O=C(Cn1c(=O)ccc2cc(S(=O)(=O)N3CCCC3)ccc21)NCc1ccc(Cl)cc1`: the “activity change, negative = inhibition” value is inactive: -12%.

For the molecule `CCN(CC)S(=O)(=O)c1ccc2nc(NC(=O)c3cccnc3)sc2c1`, the “activity change, negative = inhibition” value is inactive: -21.9%.

Turning to `COc1cc(-c2noc(-c3ccc(N4CCN(C)CC4)c([N+](=O)[O-])c3)n2)cc(OC)c1OC`, the “activity change, negative = inhibition” value was inactive: -4.5%.

With `CCOC(=O)c1cc(S(=O)(=O)NCc2ccccc2)[nH]n1`, the “activity change, negative = inhibition” value was inactive: -0.31%.

Turning to `CCC(CO)NC(=O)C(=O)Nc1c2c(nn1-c1ccc(F)cc1)CSC2` (stereo not given), the “activity change, negative = inhibition” value was inactive: -20.6%.

As to `Cc1cc(Nc2ccc(C)c(Cl)c2)n2nc(Cc3ccccc3)nc2n1`, the “activity change, negative = inhibition” value is inactive: -25.3%.

As to `COCCn1c(=O)[nH]c2cc(C(=O)NCc3ccccc3Cl)ccc2c1=O`, the “activity change, negative = inhibition” value was inactive: -16.1%.

Take `CCOc1ccc(NC(=O)c2c(Nc3ccc(OC)cc3OC)sc(C(=O)c3ccc(Cl)cc3)c2N)cc1`: the “activity change, negative = inhibition” value is inactive: -15.4%.

Regarding `CCOC(=O)c1cccc(NC(=O)c2cc3sccc3n2Cc2ccc(Cl)cc2)c1`, the “activity change, negative = inhibition” value was inactive: -21.3%.

Regarding `CCOC(=O)c1cnn(-c2ccc(OC)cc2)c1C1CCN(C(=O)OC(C)(C)C)CC1`, the “activity change, negative = inhibition” value was inactive: -28.3%.

Turning to `Cc1cccc(-c2nc(SCc3ccc(Br)cc3)n3[nH]c(=O)cc3n2)c1`, the “activity change, negative = inhibition” value was inactive: -1.48%.

In the case of `CC1CCCCN1c1csc2ccc(F)cc2c1=O` (stereo not given), the “activity change, negative = inhibition” value was inactive: 37.3%.

As to `Cn1nc(C(=O)Nc2cc(F)ccc2F)c2c1-c1ccccc1SC2`, the “activity change, negative = inhibition” value is inactive: 15%.

Regarding `CCOc1ccn(-c2ccc(F)cc2)c(=O)c1C(=O)Nc1ccc(Oc2ccnc(N)c2Cl)c(F)c1`, the “activity change, negative = inhibition” value is inactive: -9.3%.

`CSc1nc2sc3c(c2c(=O)n1-c1ccc(C)c(Cl)c1)CCN(C(C)=O)C3`: the “activity change, negative = inhibition” value is inactive: -10.1%.

`CCOc1ccc(CCNC(=O)c2ccc3c(c2)c(C)c(C)n3C)cc1`: the “activity change, negative = inhibition” value is inactive: 2.06%.

As to `COC(=O)c1ccc(NC(=O)CSc2nc(=O)n(Cc3ccco3)c3c2CCC3)cc1`, the “activity change, negative = inhibition” value was inactive: 0%.

On to `COc1cc(C(=O)N(Cc2ccc(C(C)C)cc2)C2CCS(=O)(=O)C2)cc(OC)c1OC` (stereo not given), for which the “activity change, negative = inhibition” value is inactive: -12.3%.

As to `CC(=O)C1=C(OC(=O)C(C)C)c2ccccc2S(=O)(=O)N1Cc1ccccc1`, the “activity change, negative = inhibition” value was inactive: -15.8%.

On to `CCN(CC)CCNC(=O)c1ccc(NC(C)=O)cc1`, for which the “activity change, negative = inhibition” value was inactive: 1.63%.

`Cc1ccc(CNC(=O)CC2Oc3ccccc3NC2=O)cc1` (stereo not given): the “activity change, negative = inhibition” value is inactive: -1.99%.

For `CCOC(=O)C1CCCN(C(=O)Cn2ncc3c([nH]c4ccccc43)c2=O)C1` (stereo not given), the “activity change, negative = inhibition” value was inactive: -5.56%.
